# Laboratory results from article PMC4336329 (PLoS ONE, 2015).
# Screen size: about 310,000 compounds; about 2,200 (0.71%) showed an effect of 50% or more. The effect is printed as a negative number. The list shows a part of the results.
# Biological target: human ether-à-go-go-related gene (hERG) potassium channel (human, UniProt Q12809)
# Assay: primary screen, population patch clamp on CHO cells stably expressing hERG
# Sequence of human ether-à-go-go-related gene (hERG) potassium channel (Q12809 whole entry, looked up): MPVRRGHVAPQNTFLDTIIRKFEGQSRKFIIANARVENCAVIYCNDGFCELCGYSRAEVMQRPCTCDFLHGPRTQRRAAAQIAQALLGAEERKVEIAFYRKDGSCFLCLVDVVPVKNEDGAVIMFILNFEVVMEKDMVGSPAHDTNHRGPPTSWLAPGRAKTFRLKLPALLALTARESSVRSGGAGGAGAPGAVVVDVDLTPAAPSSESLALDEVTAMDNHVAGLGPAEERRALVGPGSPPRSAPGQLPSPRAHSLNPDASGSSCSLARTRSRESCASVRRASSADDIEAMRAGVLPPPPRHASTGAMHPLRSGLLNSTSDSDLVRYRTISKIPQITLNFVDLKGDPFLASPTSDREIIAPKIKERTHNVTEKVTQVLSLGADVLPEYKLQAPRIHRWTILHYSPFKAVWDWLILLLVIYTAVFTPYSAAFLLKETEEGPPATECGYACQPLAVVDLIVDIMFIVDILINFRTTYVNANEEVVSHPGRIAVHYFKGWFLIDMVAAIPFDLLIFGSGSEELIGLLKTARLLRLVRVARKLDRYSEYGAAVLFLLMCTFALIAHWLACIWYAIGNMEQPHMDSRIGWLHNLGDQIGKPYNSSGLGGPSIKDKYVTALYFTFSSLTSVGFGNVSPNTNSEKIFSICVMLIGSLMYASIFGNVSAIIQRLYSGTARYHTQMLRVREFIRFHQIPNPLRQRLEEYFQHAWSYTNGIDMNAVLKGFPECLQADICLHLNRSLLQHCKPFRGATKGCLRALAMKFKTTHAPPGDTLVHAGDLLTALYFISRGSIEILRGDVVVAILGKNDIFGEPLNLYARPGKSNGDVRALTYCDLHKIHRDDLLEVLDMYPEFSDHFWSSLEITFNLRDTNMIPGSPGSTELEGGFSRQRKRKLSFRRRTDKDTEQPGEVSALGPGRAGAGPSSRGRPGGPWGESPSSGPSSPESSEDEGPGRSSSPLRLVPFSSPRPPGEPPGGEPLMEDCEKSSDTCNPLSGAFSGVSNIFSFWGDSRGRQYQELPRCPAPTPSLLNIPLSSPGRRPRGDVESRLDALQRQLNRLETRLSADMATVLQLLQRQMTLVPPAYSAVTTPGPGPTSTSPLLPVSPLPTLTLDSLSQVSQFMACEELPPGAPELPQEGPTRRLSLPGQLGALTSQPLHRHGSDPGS
row,Structure (SMILES),"hERG current change (%, negative = inhibition) at 1uM"
1,CC(OC(=O)c1snc(C(=O)NC2CCCCC2)c1N)C(=O)NC1CCCCC1 (stereo not drawn),-1.15%
2,O=S(=O)(NCc1cccnc1)c1ccc(Cl)c(Cl)c1,3.04%
3,CC(=O)Nc1ccc(S(=O)(=O)N2CCN(Cc3ccccc3[N+](=O)[O-])CC2)cc1,12.9%
4,COCCNC(=O)c1onc(CSc2cccc(OC)c2)c1C(=O)O,3.94%
5,COc1ccc(CC(=O)OC(C)CN2CCOCC2)cc1 (stereo not drawn),19.5%
6,Cc1cccc(COC(=O)Nc2ccc(NC(=O)c3ccccc3Cl)cc2)c1,15%
7,COc1ccccc1NC(=O)c1ccc(S(=O)(=O)NCc2ccco2)cc1,13.8%
8,O=C(CSc1ccccc1)Nc1nc2ccccc2[nH]1,12%
9,Cc1ccc(NC(=O)CCCC(=O)O)c(Br)c1,8.23%
10,CN(Cc1ccccc1)C(=O)COC(=O)c1cncc(Br)c1,8.75%
11,CC(=O)N/C(=C\c1ccccc1)C(=O)Nc1ccc(O)cc1,2.02%
12,CCCCC(NC(=O)Cc1c(C)c2cc3c(C)c(C)oc3c(C)c2oc1=O)C(=O)O (stereo not drawn),4.83%
13,CCN1C(=O)[C@H]2[C@@H](c3ccc(C)cc3)N3C(=O)N(c4ccc(C)cc4)C(=O)[C@@]3(C)[C@H]2C1=O,6.87%
14,Cc1nn(CCCC(=O)NCc2ccccc2)c(=O)c2nccn12,12.3%
15,CCc1ccccc1NC(=O)COc1ccc2c(=O)c(Oc3cc(C)ccc3C)coc2c1,12.5%
16,CC(=O)c1ccc(-c2cc([C@H]3[C@H]4C=CC[C@@H](C)[C@@H]4C(=O)N3Cc3ccccc3)ccc2F)cc1,11.5%
17,CC1CCCC(C)N1CCCNC(=O)CN1C(=O)COc2ccc(S(=O)(=O)N3CCOCC3)cc21 (stereo not drawn),10.9%
18,CCCCN(C)C(=O)Cn1cnc2sc(C)c(S(=O)(=O)N3CCN(c4ccccc4OC)CC3)c2c1=O,13.9%
19,N#CCSc1nnc(Cc2cccs2)n1C1CCCCC1,2.68%
20,Cc1noc(NS(=O)(=O)c2ccc(N/C=C\C(=O)c3ccc(F)cc3)cc2)c1C,2.43%
21,COc1cccc(N(C(C)=O)C2=NCCCS2)c1,17.3%
22,Cc1ccc(CNC(=O)Cc2ccc(-n3cccc3)cc2)cc1,16.9%
23,COC(=O)c1cc2occc2n1Cc1nc(-c2ccccc2Cl)oc1C,-7.85%
24,c1csc(-c2nn3c(Cn4nnc5ccccc54)nnc3s2)c1,13.1%
25,COC(=O)c1ccc(NC(=S)N2CCN(Cc3ccccc3Cl)CC2)cc1,2.31%
26,CC1CCc2c(C(=O)Nc3cccc(-c4nn[nH]n4)c3)csc2C1 (stereo not drawn),4.9%
27,O=C(CCSc1nnc(-c2ccco2)o1)Nc1ccc(Cl)cc1,9.01%

row,Structure (SMILES),"hERG current change (%, negative = inhibition) at 1uM"
1,N#CCN1C(=O)C(=O)N(Cc2cccc(C(F)(F)F)c2)C1=O,13.9%
2,Br.CCCn1c(=N)n(CC(=O)c2ccc(OCC(=O)OC)cc2)c2ccccc21,-14.1%
3,CCOc1ccc(NC(=O)CN(C)C(=O)CC2CC3CCC2C3)cc1OCC (stereo not drawn),4.42%
4,COc1ccccc1OCCNC(=O)CNC(=O)c1ccc(Cl)c(Cl)c1,4.32%
5,COc1ccc(-c2cc(C(=O)Nc3cc(S(=O)(=O)N4CCOCC4)ccc3N3CCOCC3)c3ccccc3n2)cc1,4.02%
6,O=C(CCCn1c(=S)[nH]c2ccccc2c1=O)NCc1ccco1,-0.681%
7,CC(C)(C)c1ccc(OCC(=O)N/N=C/c2ccsc2)cc1,3.1%
8,Cc1ccc2nsnc2c1S(=O)(=O)N1CCN(Cc2ccc3c(c2)OCO3)CC1,2.47%
9,Cc1ccc(S(=O)(=O)NC(=O)N2CCCN(Cc3ccc(F)cc3)CC2)cc1,10.1%
10,CCCCNC(=S)NNC(=O)C12CC3CC(CC(C3)C1)C2,-0.28%
11,Cl.Oc1ccc(CC2CC3CCN2CC3)cc1O (stereo not drawn),9.47%
12,O=C(N/N=C/c1cc([N+](=O)[O-])ccc1Cl)c1cc(-c2ccccc2)nc2ccccc12,8.66%
13,COc1ccc(N2CCN(CC(=O)c3ccccc3)CC2)cc1,12.9%
14,COc1ccc(C(CC(=O)N2CCCC(C)C2)c2c(OC)cc(OC)c3ccc(=O)oc23)cc1 (stereo not drawn),18%
15,O=C(CNc1ccc(F)cc1)N/N=C/C1CC=CCC1 (stereo not drawn),9.64%
16,O=C(OCC(=O)N1CCCC1)c1c[nH]c2ccccc12,9.74%
17,CCN(CCO)c1ccc(-n2c(N)c(C(=O)OC)c3nc4ccccc4nc32)cc1,-3.69%
18,O=C(O)c1cccc(-c2ccc(/C=N/Nc3ccc([N+](=O)[O-])cc3)o2)c1,12%
19,FC(F)(F)Oc1ccc(NC(=S)NCCCN2CCOCC2)cc1,-9.72%
20,CC[C@H](C)[C@@H]1NC(=O)c2cc([N+](=O)[O-])cc(F)c2OCC[C@@H](C(N)=O)NC(=O)[C@H](CCCCN)NC1=O,20.1%
21,CN1C(c2ccccc2)CC(=NO)CC1c1ccccc1 (stereo not drawn),11.1%
22,COc1ccc(/C=C2\SC(N3CCc4ccccc4C3)=NC2=O)cc1OC,4.22%
23,Cc1cc(C)cc(Oc2c(C(F)(F)F)oc3cc(OCC(=O)O)ccc3c2=O)c1,7.08%
24,Cc1ccc(C)c(Nc2cc(C(=O)NCc3cccnc3)c3ccccc3n2)c1,7.29%
25,O=[N+]([O-])c1cccnc1Sc1ccccc1Cl,16.8%
26,Cc1ccc(-c2nc3ccc(C)cn3c2CC(=O)N(C)C)cc1.O=C(O)C(O)C(O)C(=O)O,-7.11%
27,Oc1ccccc1/C=N/NP(=S)(c1ccccc1)c1ccccc1,2.28%
